# Test results as given in patent US12577227B2, “WDR5 inhibitors and modulators” (Vanderbilt University, priority 2019, dated 2026).
# Target: WDR5 (Homo sapiens, UniProt P61964)
# Assay: TR-FRET competition assay (MLL peptide binding, displacement of 10mer-Thr-FAM probe)
# Conditions: WDR5-His tag (Δ23, residues 24-334) 2 nM; 10mer-Thr-FAM 150 nM; Tb-anti-HIS 1 nM; 60 minutes room temperature; pH 7.2; read-out: Ki for Inhibition of WDR5 by TR-FRET assay
row,SMILES,pKi
1,"COc1cc(CN2CCNc3c(cc(Cn4ccn(C)c4=N)cc3-c3ccc(F)cc3C)C2=O)cc(OC)c1 [Example 29, 4-(3,5-Dimethoxybenzyl)-9-(4-fluoro-2-methylphenyl)-7-((2-imino-3-methyl-2,3-dihydro-1H-imidazol-1-yl)methyl)-1,2,3,4-tetrahydro-5H-benzo[e][1,4]diazepin-5-one]",10.26
2,"COc1cc(CN2CC(=O)Nc3c(cc(Cn4ccoc4=N)cc3-c3ccc(F)cc3C)C2=O)cc(OC)c1 [Example 30, 4-(3,5-Dimethoxybenzyl)-9-(4-fluoro-2-methylphenyl)-7-((2-iminooxazol-3(2H)-yl)methyl)-3,4-dihydro-1H-benzo[e][1,4]diazepine-2,5-dione]",9.80
3,"Cc1cc(C)nc(CN2CCOc3c(cc(Cn4cnn(C)c4=N)cc3-c3cn(C)nc3C(F)(F)F)C2=O)c1 [Example 31, 4-((4,6-dimethylpyridin-2-yl)methyl)-7-((5-imino-1-methyl-1,5-dihydro-4H-1,2,4-triazol-4-yl)methyl)-9-(1-methyl-3-(trifluoromethyl)-1H-pyrazol-4-yl)-3,4-dihydrobenzo[f][1,4]oxazepin-5(2H)-one]",> 10.30
4,"Cc1ccnc(CN2CCOc3c(cc(Cn4cnn(C)c4=N)cc3-c3cn(C)nc3C(F)(F)F)C2=O)c1 [Example 32, 7-((5-imino-1-methyl-1,5-dihydro-4H-1,2,4-triazol-4-yl)methyl)-9-(1-methyl-3-(trifluoromethyl)-1H-pyrazol-4-yl)-4-((4-methylpyridin-2-yl)methyl)-3,4-dihydrobenzo[f][1,4]oxazepin-5(2H)-one]",9.96
5,"COc1cc(CN2C[C@@H](C)Oc3c(cc(Cn4ccn(C)c4=N)cc3-c3ccc(F)cc3C)C2=O)cc(OC)c1 [Example 33, (R)-4-(3,5-dimethoxybenzyl)-9-(4-fluoro-2-methylphenyl)-7-((2-imino-3-methyl-2,3-dihydro-1H-imidazol-1-yl)methyl)-2-methyl-3,4-dihydrobenzo[f][1,4]oxazepin-5(2H)-one]",> 10.30
6,"COc1cc(CN2C[C@@H](C)Oc3c(cc(Cn4ccnc4C)cc3-c3ccc(F)cc3C)C2=O)cc(OC)c1 [Example 34, (R)-4-(3,5-Dimethoxybenzyl)-9-(4-fluoro-2-methylphenyl)-2-methyl-7-((2-methyl-1H-imidazol-1-yl)methyl)-3,4-dihydrobenzo[f][1,4]oxazepin-5(2H)-one]",> 10.30
7,"COc1cc(CN2C[C@H](C)Oc3c(cc(Cn4ccn(C)c4=N)cc3-c3ccc(F)cc3C)C2=O)cc(OC)c1 [Example 35, (S)-4-(3,5-Dimethoxybenzyl)-9-(4-fluoro-2-methylphenyl)-7-((2-imino-3-methyl-2,3-dihydro-1H-imidazol-1-yl)methyl)-2-methyl-3,4-dihydrobenzo[f][1,4]oxazepin-5(2H)-one]",> 10.30
8,"COc1cc(CN2C[C@H](C)Oc3c(cc(Cn4ccnc4C)cc3-c3ccc(F)cc3C)C2=O)cc(OC)c1 [Example 36, (S)-4-(3,5-Dimethoxybenzyl)-9-(4-fluoro-2-methylphenyl)-2-methyl-7-((2-methyl-1H-imidazol-1-yl)methyl)-3,4-dihydrobenzo[f][1,4]oxazepin-5(2H)-one]",10.13
9,"CCc1nccn1Cc1cc2c(c(-c3cn(C)nc3C(F)(F)F)c1)OCCN(Cc1cc(C)ccn1)C2=O [Example 37, 7-((2-Ethyl-1H-imidazol-1-yl)methyl)-9-(1-methyl-3-(trifluoromethyl)-1H-pyrazol-4-yl)-4-((4-methylpyridin-2-yl)methyl)-3,4-dihydrobenzo[f][1,4]oxazepin-5(2H)-one]",9.82
10,"CCc1nccn1Cc1cc2c(c(-c3cn(C)nc3C(F)(F)F)c1)OCCN(Cc1cc(C)cc(C)n1)C2=O [Example 38, 4-((4,6-Dimethylpyridin-2-yl)methyl)-7-((2-ethyl-1H-imidazol-1-yl)methyl)-9-(1-methyl-3-(trifluoromethyl)-1H-pyrazol-4-yl)-3,4-dihydrobenzo[f][1,4]oxazepin-5(2H)-one]",> 10.30
11,"Cc1ccnc(CN2C[C@H](C)Oc3c(cc(Cn4ccnc4C)cc3-c3cn(C)nc3C(F)(F)F)C2=O)c1 [Example 39, (S)-2-Methyl-7-((2-methyl-1H-imidazol-1-yl)methyl)-9-(1-methyl-3-(trifluoromethyl)-1H-pyrazol-4-yl)-4-((4-methylpyridin-2-yl)methyl)-3,4-dihydrobenzo[f][1,4]oxazepin-5(2H)-one]",9.74
12,"Cc1ccnc(CN2C[C@@H](C)Oc3c(cc(Cn4ccnc4C)cc3-c3cn(C)nc3C(F)(F)F)C2=O)c1 [Example 40, (R)-2-Methyl-7-((2-methyl-1H-imidazol-1-yl)methyl)-9-(1-methyl-3-(trifluoromethyl)-1H-pyrazol-4-yl)-4-((4-methylpyridin-2-yl)methyl)-3,4-dihydrobenzo[f][1,4]oxazepin-5(2H)-one]",9.92
13,"Cc1cc(C)nc(CN2CCOc3c(cc(Cn4ccnc4C)cc3-c3ccc(F)cc3C)C2=O)c1 [Example 41, 4-((4,6-Dimethylpyridin-2-yl)methyl)-9-(4-fluoro-2-methylphenyl)-7-((2-methyl-1H-imidazol-1-yl)methyl)-3,4-dihydrobenzo[f][1,4]oxazepin-5(2H)-one]",> 10.30
14,"Cc1cc(C)nc(CN2CCOc3c(cc(Cn4ccnc4C)cc3-c3cccnc3C(F)(F)F)C2=O)c1 [Example 42, 4-((4,6-Dimethylpyridin-2-yl)methyl)-7-((2-methyl-1H-imidazol-1-yl)methyl)-9-(2-(trifluoromethyl)pyridin-3-yl)-3,4-dihydrobenzo[f][1,4]oxazepin-5(2H)-one]",9.74
15,"Cc1cc(C)nc(CN2CCOc3c(cc(Cn4ccnc4C)cc3-c3sc(C)nc3C)C2=O)c1 [Example 43, 4-((4,6-Dimethylpyridin-2-yl)methyl)-9-(2,4-dimethylthiazol-5-yl)-7-((2-methyl-1H-imidazol-1-yl)methyl)-3,4-dihydrobenzo[f][1,4]oxazepin-5(2H)-one]",9.64
16,"Cc1cc(C)nc(CN2CCOc3c(cc(Cn4ccnc4C)cc3-c3cccnc3C)C2=O)c1 [Example 44, 4-((4,6-Dimethylpyridin-2-yl)methyl)-7-((2-methyl-1H-imidazol-1-yl)methyl)-9-(2-methylpyridin-3-yl)-3,4-dihydrobenzo[f][1,4]oxazepin-5(2H)-one]",9.70
17,"Cc1cc(C)nc(CN2CCOc3c(cc(Cn4ccnc4C)cc3-c3ccccc3C)C2=O)c1 [Example 45, 4-((4,6-Dimethylpyridin-2-yl)methyl)-7-((2-methyl-1H-imidazol-1-yl)methyl)-9-(o-tolyl)-3,4-dihydrobenzo[f][1,4]oxazepin-5(2H)-one]",10.12
18,"Cc1cc(C)nc(CN2CCOc3c(cc(Cn4ccnc4C)cc3-c3scnc3C)C2=O)c1 [Example 46, 4-((4,6-Dimethylpyridin-2-yl)methyl)-7-((2-methyl-1H-imidazol-1-yl)methyl)-9-(4-methylthiazol-5-yl)-3,4-dihydrobenzo[f][1,4]oxazepin-5(2H)-one]",9.62
19,"COc1ccnc([C@H](C)N2CCOc3c(cc(Cn4ccnc4C)cc3-c3cn(C)nc3C(F)(F)F)C2=O)c1 [Example 47, (S)-4-(1-(4-Methoxypyridin-2-yl)ethyl)-7-((2-methyl-1H-imidazol-1-yl)methyl)-9-(1-methyl-3-(trifluoromethyl)-1H-pyrazol-4-yl)-3,4-dihydrobenzo[f][1,4]oxazepin-5(2H)-one]",> 10.30
20,"Cc1cc(C)nc(CN2CCOc3c(cc(Cn4ccnc4C)cc3-c3ccc(F)cc3Cl)C2=O)c1 [Example 48, 9-(2-Chloro-4-fluorophenyl)-4-((4,6-dimethylpyridin-2-yl)methyl)-7-((2-methyl-1H-imidazol-1-yl)methyl)-3,4-dihydrobenzo[f][1,4]oxazepin-5(2H)-one]",> 10.30
21,"Cc1cc(C)nc(CN2CCOc3c(cc(Cn4ccnc4C)cc3-c3cc(C)ccc3C)C2=O)c1 [Example 49, 9-(2,5-Dimethylphenyl)-4-((4,6-dimethylpyridin-2-yl)methyl)-7-((2-methyl-1H-imidazol-1-yl)methyl)-3,4-dihydrobenzo[f][1,4]oxazepin-5(2H)-one]",> 10.30
22,"COc1ccnc([C@H](C)N2CCOc3c(cc(Cn4ccnc4C)cc3-c3ccc(F)cc3C)C2=O)c1 [Example 50, (S)-9-(4-Fluoro-2-methylphenyl)-4-(1-(4-methoxypyridin-2-yl)ethyl)-7-((2-methyl-1H-imidazol-1-yl)methyl)-3,4-dihydrobenzo[f][1,4]oxazepin-5(2H)-one]",> 10.30
23,"Cc1cc(C)nc(CN2CCOc3c(cc(Cn4ccnc4C)cc3-c3cc(C)c(F)cc3C)C2=O)c1 [Example 51, 4-((4,6-Dimethylpyridin-2-yl)methyl)-9-(4-fluoro-2,5-dimethylphenyl)-7-((2-methyl-1H-imidazol-1-yl)methyl)-3,4-dihydrobenzo[f][1,4]oxazepin-5(2H)-one]",> 10.30
24,"Cc1cc(C)nc(CN2CCOc3c(cc(Cn4ccnc4C)cc3-c3cc(Cl)ccc3C)C2=O)c1 [Example 52, 9-(5-Chloro-2-methylphenyl)-4-((4,6-dimethylpyridin-2-yl)methyl)-7-((2-methyl-1H-imidazol-1-yl)methyl)-3,4-dihydrobenzo[f][1,4]oxazepin-5(2H)-one]",> 10.30
25,"COc1ccnc([C@H](C)N2CCOc3c(cc(Cn4cnn(C)c4=N)cc3-c3cn(C)nc3C(F)(F)F)C2=O)c1 [Example 53, (S)-7-((5-Imino-1-methyl-1,5-dihydro-4H-1,2,4-triazol-4-yl)methyl)-4-(1-(4-methoxypyridin-2-yl)ethyl)-9-(1-methyl-3-(trifluoromethyl)-1H-pyrazol-4-yl)-3,4-dihydrobenzo[f][1,4]oxazepin-5(2H)-one]",> 10.30
26,"COc1ccnc([C@H](C)N2CCOc3c(cc(Cn4cnn(C)c4=N)cc3-c3ccc(F)cc3Cl)C2=O)c1 [Example 54, (S)-9-(2-Chloro-4-fluorophenyl)-7-((5-imino-1-methyl-1,5-dihydro-4H-1,2,4-triazol-4-yl)methyl)-4-(1-(4-methoxypyridin-2-yl)ethyl)-3,4-dihydrobenzo[f][1,4]oxazepin-5(2H)-one]",> 10.30

# pKi: −log10 of the molar value.
